Out of some 270,000 compounds screened, about 5,800 (2.1%) were called active. This list was built around the results that the source calls inconclusive (neither active nor inactive); the mix of calls is not that of the screen. Calls come from the whole dose curve; as a rule, active = well fitted inhibition curve with a large enough effect; inconclusive = small, poorly fitted or top-dose-only effect; inactive = flat fitted curve, though single readings scatter. Potencies of inconclusive entries are doubtful fits and often do not repeat.
What follows are compounds tested against Microtubule-associated protein tau (Homo sapiens) (UniProt P10636) (assay: qHTS for Inhibitors of Tau Fibril Formation, Thioflavin T Binding). Settings: recombinant tau K18 P301L (four-repeat tau fragment), heparin-induced fibrillization, ThT fluorescence; series mostly up to 57.4 µM.
Outline: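 Tau K18 P301L fragment (15 uM unlabeled plus 0.24 uM Alexa 594-labeled) in 100 mM sodium acetate pH 7 with compound, fibrillization induced by 20 uM heparin for 6 hr at 37 C. Thioflavin T (30 uM) added, fluorescence read after 1 hr (ex 450, em 510 nm).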
Note: nearly all actives have a fitted effect of over 55% in size.
Potency is the fitted concentration of half-maximal effect; tags give direction and shape of the fitted curve.

Sequence of UniProt P10636 (P10636 whole entry, looked up, the tested form may be a part): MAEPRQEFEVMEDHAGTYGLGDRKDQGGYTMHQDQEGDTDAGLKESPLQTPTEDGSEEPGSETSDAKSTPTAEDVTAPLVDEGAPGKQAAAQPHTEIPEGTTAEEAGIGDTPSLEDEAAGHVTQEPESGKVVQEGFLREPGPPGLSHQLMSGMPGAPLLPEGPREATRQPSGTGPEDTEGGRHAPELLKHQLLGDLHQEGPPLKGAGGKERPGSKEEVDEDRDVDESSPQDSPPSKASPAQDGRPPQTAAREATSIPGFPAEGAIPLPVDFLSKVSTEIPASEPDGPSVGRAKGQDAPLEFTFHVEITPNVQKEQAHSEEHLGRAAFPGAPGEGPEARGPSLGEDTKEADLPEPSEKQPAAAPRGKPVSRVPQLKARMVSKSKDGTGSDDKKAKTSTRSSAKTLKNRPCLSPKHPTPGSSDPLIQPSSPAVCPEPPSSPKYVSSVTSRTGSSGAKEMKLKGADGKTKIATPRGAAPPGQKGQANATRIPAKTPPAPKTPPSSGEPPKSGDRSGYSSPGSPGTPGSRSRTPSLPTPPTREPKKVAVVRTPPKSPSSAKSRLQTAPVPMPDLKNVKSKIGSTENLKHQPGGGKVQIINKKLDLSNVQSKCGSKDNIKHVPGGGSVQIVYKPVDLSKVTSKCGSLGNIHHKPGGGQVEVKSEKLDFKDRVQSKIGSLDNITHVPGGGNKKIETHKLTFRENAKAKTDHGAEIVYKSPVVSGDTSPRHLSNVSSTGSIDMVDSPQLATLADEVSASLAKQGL

SMILES | Potency
CCCCSc1nnc2c(n1)OC(c1ccc(Br)s1)N(C(C)=O)c1ccccc1-2 (centres undefined) | inconclusive: 20 µM [inhibitor, partial curve]
CCN1/C(=C/C(C)=C/c2sc3ccccc3[n+]2CC)Sc2ccccc21 | active: 1.58 µM
O=C(O)c1cccc(N/N=C/c2ccc(F)c(F)c2)c1 | inconclusive: 15.8 µM [inhibitor, single point]
O=C(CC1Nc2ccccc2NC1=O)Nc1ccc2c(c1)OCO2 (centres undefined) | inconclusive: 17.8 µM [inhibitor, partial curve]
CCCCNC(=O)CN1C(=O)C(CC)Oc2ccc(Cl)cc21 (centres undefined) | inconclusive: 22.4 µM [inhibitor, partial curve, poor fit]
CCOC(=O)c1ccc(NC(=O)CSc2nc3sc(C(=O)O)c(C)c3c(=O)[nH]2)cc1 | inconclusive: 3.16 µM [inhibitor, full curve, poor fit]
N#Cc1nc(COc2ccccc2Cl)oc1NCc1ccco1 | inconclusive: 35.5 µM [inhibitor, single point]
C[C@@H]1NC(=O)[C@H](CCC(N)=O)NC(=O)c2cc([N+](=O)[O-])cc(I)c2NCC[C@@H](C(N)=O)NC1=O | inconclusive: 39.8 µM [inhibitor, single point]
Cc1ccc(C)c(N2CCN(c3c(CN4CCCC4)c(=O)oc4ccccc34)CC2)c1 | inconclusive: 35.5 µM [inhibitor, single point]
Cc1sc(NC(=O)/C=C/c2ccco2)c(C(=O)O)c1C | inconclusive: 10 µM [inhibitor, partial curve]
Cc1cc(C2=NNC(=NC3CC3)SC2)c(C)n1-c1ccccc1 | inconclusive: 17.8 µM [inhibitor, partial curve]
N#Cc1ccc(/C=N/NC(=O)c2cc(-c3cccs3)nc3ccccc23)cc1 | inactive
O=[N+]([O-])c1ccc(N2CCCC2)cc1N1CCCC1 | active: 17.8 µM
Cc1ccc(CCNC(=O)c2ccc3c(Cl)c4c(nc3c2)CCCC4)cc1 | inconclusive: 10 µM [inhibitor, partial curve]
Cc1ccccc1S(=O)(=O)Cc1ccc(C(=O)NC(C)c2ccc3c(c2)OCCO3)o1 (centres undefined) | inactive
Cc1ccc(Nc2c(-c3ccccc3O)nc3cnccn23)cc1 | inactive
O=C(NCCSc1c(-c2ccccc2)[nH]c2ccccc12)c1cc2ccccc2oc1=O | inconclusive: 7.08 µM [inhibitor, partial curve]
Cc1ccc2nc(/C(C#N)=C/c3ccc(-c4cccc([N+](=O)[O-])c4)o3)[nH]c2c1 | active: 1.41 µM
C=CCn1c(C)cc(-c2csc(NCC)n2)c1C | inconclusive: 22.4 µM [inhibitor, partial curve]
O=C(NNC(=O)c1cc2cc3ccccc3nc2s1)c1cccc(Cl)c1 | inconclusive: 4.47 µM [inhibitor, partial curve]
O=C(NCc1ccc(Cl)cc1)C1CCN(S(=O)(=O)c2cc([N+](=O)[O-])ccc2Cl)CC1 | inactive
CC(C)Cn1c(=O)[nH]c2ccccc21 | inactive

SMILES | Potency
Brc1ccc2c(c1)OCCOCCOc1cc(Br)ccc1OCCOCCOCCO2 | inconclusive: 28.2 µM [inhibitor, partial curve]
CCn1cc(C(=O)NCc2ccco2)c(=O)c2cc(S(=O)(=O)N3CCc4ccccc4C3)ccc21 | inconclusive: 20 µM [inhibitor, partial curve]
O=C(N/N=C/c1ccc(-c2ccc([N+](=O)[O-])cc2)o1)[C@H]1C[C@@H]1c1ccccc1 | inconclusive: 1.58 µM [inhibitor, full curve]
CCc1ccc(OCC(=O)NCCN(C)C)c(Br)c1 | inactive
Cc1ccc(-c2nnn(CC(=O)N(Cc3cccs3)C(C(=O)NC3CCCCC3)c3ccco3)n2)o1 (centres undefined) | inactive
Cc1ccsc1/C=N/n1c(-c2cccnc2)n[nH]c1=S | inactive
CC(=O)c1ccc(NS(=O)(=O)c2cccc(S(=O)(=O)c3ccc(Cl)cc3)c2)cc1 | inconclusive: 11.2 µM [inhibitor, partial curve]
Cc1nn(S(=O)(=O)c2ccc(Br)cc2)c(C)c1S(=O)(=O)N1CCCCCC1 | inactive
O=C(C(=O)N1CCCC1CO)N1CCCC1CO (centres undefined) | inactive
O=C(CSc1ccc(-c2ccco2)nn1)c1ccccc1 | inconclusive: 14.1 µM [inhibitor, partial curve]
COC(=O)c1c(N)sc2c1CCN(c1ncc(C(F)(F)F)cc1Cl)C2 | inconclusive: 12.6 µM [inhibitor, partial curve]
CCc1ccc(S(=O)(=O)N(C(=O)c2ccncc2)c2ccc3oc(C)c(C(=O)OC)c3c2)cc1 | inconclusive: 11.2 µM [inhibitor, partial curve]
Cc1ccc2[nH]nc(C(=O)N3CCCC(C(=O)c4ccc(Cl)cc4)C3)c2c1 (centres undefined) | inconclusive: 39.8 µM [inhibitor, single point]
COc1nccnc1NS(=O)(=O)c1ccc(N/C=C2\CCCCC2=O)cc1 | inconclusive: 17.8 µM [inhibitor, partial curve]
C=CCN1C(=O)C(O)(CC(=O)c2ccc(Cl)cc2)c2ccccc21 (centres undefined) | inconclusive: 28.2 µM [inhibitor, single point]
O=C1c2sc3nc4ccccc4n3c2C(=O)N1c1ccccc1Cl | active: 28.2 µM
COc1ccc(CCNC(=O)C2CCN(S(=O)(=O)N3CCCCC3)CC2)cc1OC | inconclusive: 7.08 µM [inhibitor, full curve]
COc1ccc(O)c(/C=c2/sc3nc4cc(C)c(C)cc4n3c2=O)c1 | active: 22.4 µM
CCOc1ccc(NC(=O)CSc2nc3ccccc3c(=O)n2CCCC(=O)N2CCCC2)cc1 | inactive
COc1ccccc1/C=C/C=N/NC(=O)c1cccs1 | inconclusive: 10 µM [inhibitor, partial curve]
Cc1cccc(-n2cc(-c3ccccc3)c3c(N4CCOCC4)ncnc32)c1 | inconclusive: 31.6 µM [inhibitor, single point]
Cc1ccc(CNC(=O)CCC2CCCN(Cc3ccc4cccc(F)c4n3)C2)o1 (centres undefined) | inconclusive: 15.8 µM [inhibitor, partial curve, poor fit]

— PubChem BioAssay AID1460 (National Center for Advancing Translational Sciences (NCATS), 2008)
